# What was measured:
# Assay type in all cases: in vivo
# [1] = test system: Botrytis cinerea; test: Test Example B: Gray mold on tomato; conditions: for Test B control value (gray mold on tomato): class of control value, Table 7; for Test B control value: Gray mold on tomato; for control value, Test B (gray mold on tomato): Table 7, Test B
# [2] = test system: Alternaia brassicicola; test: Test Example C: Alternaria sooty spot on cabbage; conditions: for Test C control value (Alternaria sooty spot on cabbage): class of control value, Table 7; for Test C control value: Alternaria sooty spot on cabbage; for control value, Test C (Alternaria sooty spot on cabbage): Table 7, Test C
# [3] = test system: Blumeria graminis f. sp. hordei; test: Test Example D: Powdery mildew on barley; conditions: for Test D control value (powdery mildew on barley): class of control value, Table 7; for Test D control value: Powdery mildew on barley; for control value, Test D (powdery mildew on barley): Table 7, Test D
# [4] = test system: Puccinia recondita; test: Test Example E: Brown rust on wheat; conditions: for Test E control value (brown rust on wheat): class of control value, Table 7; for Test E control value: Brown rust on wheat; for control value, Test E (brown rust on wheat): Table 7, Test E
# [5] = test system: Plasmopara viticola; test: Test Example G: Downy mildew on vine; conditions: for Test G control value (downy mildew on vine): 250 ppm spray, investigated 7 to 10 days after inoculation; for Test G control value (downy mildew on vine) / Test G control value: 2.5 ml/pot; for Test G control value: Downy mildew on vine, 250 ppm sprayed, 7 to 10 days after inoculation; for control value, Test G (downy mildew on vine): 250 ppm sprayed (2.5 ml/pot) before inoculation, assessed 7 to 10 days after inoculation
smiles,measurement,setting,value
CNn1c(-c2c(F)cccc2F)c(-n2cc(F)cn2)cc(Br)c1=O [Compound 468],Test B control value (gray mold on tomato),[1],H (H shows the control value more than 50%)
same,Test C control value (Alternaria sooty spot on cabbage),[2],H (H shows the control value more than 50%)
same,Test D control value (powdery mildew on barley),[3],L (L shows the control value of 50% or less)
same,Test E control value (brown rust on wheat),[4],H (H shows the control value more than 50%)
same,Test G control value (downy mildew on vine),[5],L (L shows the control value of 50% or less)
O=c1ccc(-c2sc(Cl)cc2Cl)c(-c2c(F)cccc2F)n1CC(F)F [Compound 438],Test B control value (gray mold on tomato),[1],L (L shows the control value of 50% or less)
same,Test C control value (Alternaria sooty spot on cabbage),[2],H (H shows the control value more than 50%)
same,Test D control value (powdery mildew on barley),[3],H (H shows the control value more than 50%)
same,Test E control value (brown rust on wheat),[4],H (H shows the control value more than 50%)
same,Test G control value (downy mildew on vine),[5],L (L shows the control value of 50% or less)
CCn1c(-c2c(F)cc(F)cc2F)c(-n2ncc(C)c2Cl)ccc1=O [Compound 82],Test B control value,[1],H (H shows the control value more than 50%)
same,Test C control value,[2],H (H shows the control value more than 50%)
same,Test D control value,[3],H (H shows the control value more than 50%)
same,Test E control value,[4],H (H shows the control value more than 50%)
same,Test G control value,[5],H (H shows the control value more than 50%)
CCn1c(-c2c(F)cc(F)cc2F)c(-n2cc(Br)cn2)cc(Br)c1=O [Compound 77],Test B control value,[1],H (H shows the control value more than 50%)
same,Test C control value,[2],H (H shows the control value more than 50%)
same,Test D control value,[3],H (H shows the control value more than 50%)
same,Test E control value,[4],H (H shows the control value more than 50%)
same,Test G control value,[5],L (L shows the control value of 50% or less)
O=c1ccc(-n2cnc(Cl)c2Cl)c(-c2ccccc2Cl)n1CC(F)F [Compound 231],"control value, Test B (gray mold on tomato)",[1],H (H shows the control value more than 50%)
same,"control value, Test C (Alternaria sooty spot on cabbage)",[2],H (H shows the control value more than 50%)
same,"control value, Test D (powdery mildew on barley)",[3],H (H shows the control value more than 50%)
same,"control value, Test E (brown rust on wheat)",[4],H (H shows the control value more than 50%)
same,"control value, Test G (downy mildew on vine)",[5],L (L shows the control value of 50% or less)
CCn1c(-c2c(F)cc(F)cc2F)c(-n2cc(F)cn2)cc(Cl)c1=O [Compound 192],"control value, Test B (gray mold on tomato)",[1],H (H shows the control value more than 50%)
same,"control value, Test C (Alternaria sooty spot on cabbage)",[2],H (H shows the control value more than 50%)
same,"control value, Test D (powdery mildew on barley)",[3],H (H shows the control value more than 50%)
same,"control value, Test E (brown rust on wheat)",[4],H (H shows the control value more than 50%)
same,"control value, Test G (downy mildew on vine)",[5],H (H shows the control value more than 50%)
Cn1c(-c2ccc(F)cc2Cl)c(-n2cc(F)cn2)ccc1=O [Compound 481],Test B control value (gray mold on tomato),[1],H (H shows the control value more than 50%)
same,Test C control value (Alternaria sooty spot on cabbage),[2],L (L shows the control value of 50% or less)
same,Test D control value (powdery mildew on barley),[3],H (H shows the control value more than 50%)
same,Test E control value (brown rust on wheat),[4],H (H shows the control value more than 50%)
same,Test G control value (downy mildew on vine),[5],L (L shows the control value of 50% or less)
CCn1c(-c2ccccc2F)c(-n2ncc(C)c2Cl)cc(Br)c1=O [Compound 264],"control value, Test B (gray mold on tomato)",[1],H (H shows the control value more than 50%)
same,"control value, Test C (Alternaria sooty spot on cabbage)",[2],H (H shows the control value more than 50%)
same,"control value, Test D (powdery mildew on barley)",[3],L (L shows the control value of 50% or less)
same,"control value, Test E (brown rust on wheat)",[4],H (H shows the control value more than 50%)
same,"control value, Test G (downy mildew on vine)",[5],L (L shows the control value of 50% or less)
CCn1c(-c2c(F)cc(OC)cc2F)c(-n2cc(Cl)c(C)n2)cc(Cl)c1=O [Compound 143],Test B control value,[1],H (H shows the control value more than 50%)
same,Test C control value,[2],H (H shows the control value more than 50%)
same,Test D control value,[3],L (L shows the control value of 50% or less)
same,Test E control value,[4],H (H shows the control value more than 50%)
same,Test G control value,[5],L (L shows the control value of 50% or less)
CCn1c(-c2ccccc2Br)c(-n2cc(F)cn2)cc(Cl)c1=O [Compound 357],"control value, Test B (gray mold on tomato)",[1],H (H shows the control value more than 50%)
same,"control value, Test C (Alternaria sooty spot on cabbage)",[2],H (H shows the control value more than 50%)
same,"control value, Test D (powdery mildew on barley)",[3],H (H shows the control value more than 50%)
same,"control value, Test E (brown rust on wheat)",[4],H (H shows the control value more than 50%)
same,"control value, Test G (downy mildew on vine)",[5],L (L shows the control value of 50% or less)
CCn1c(-c2c(F)cc(OC)cc2F)c(C2OCCO2)cc(Cl)c1=O [Compound 12],Test B control value,[1],H (H shows the control value more than 50%)
same,Test C control value,[2],H (H shows the control value more than 50%)
same,Test D control value,[3],L (L shows the control value of 50% or less)
same,Test E control value,[4],H (H shows the control value more than 50%)
same,Test G control value,[5],L (L shows the control value of 50% or less)

# Source: patent US11178870B2 (priority 2017, dated 2021)
